No constants are given. Whether binding was seen depends on the method and setting. Some entries that bind do so weakly or less than the wild type. Where a sequence is shown, tags or fusion partners need not be part of it.
Target: T1, Slc1-Cub-LexA-VP16 (S. cerevisiae, UniProt P33333 1-303)
T1 construct: Slc1, lysophosphatidic acid acyltransferase of S. cerevisiae; The end of the tag is read from the order of the printed label; also called Slc1 bait (strain YBG2); pTMBV4-SLC1; not shown: Cub-LexA-VP16, C-terminal, kept
T1 sequence (looked up): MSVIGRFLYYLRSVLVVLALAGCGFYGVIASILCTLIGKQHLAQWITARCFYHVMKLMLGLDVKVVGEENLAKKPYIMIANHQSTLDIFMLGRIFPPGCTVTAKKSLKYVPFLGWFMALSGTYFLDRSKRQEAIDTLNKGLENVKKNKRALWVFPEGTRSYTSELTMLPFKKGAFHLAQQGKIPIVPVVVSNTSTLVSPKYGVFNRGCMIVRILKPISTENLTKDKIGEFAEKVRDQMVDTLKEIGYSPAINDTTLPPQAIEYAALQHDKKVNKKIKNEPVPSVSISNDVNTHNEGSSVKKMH
Assay: two-hybrid; membrane yeast two-hybrid (split ubiquitin) in a Δole1 strain (ole1::NatMX6, derived from NMY51): Slc1-Cub-LexA-VP16 as bait, NubG fusions as prey; growth on SD-W-L-H-A supplemented with 0.5% Tween-80 and β-galactosidase activity of cell extracts

- binding: binds
B1: NubG-Dga1 (full-length NubG-Dga1 fusion) (enzyme, S. cerevisiae, UniProt Q08650 1-418, looked up)
chain: MSGTFNDIRRRKKEEGSPTAGITERHENKSLSSIDKREQTLKPQLESCCPLATPFERRLQTLAVAWHTSSFVLFSIFTLFAISTPALWVLAIPYMIYFFFDRSPATGEVVNRYSLRFRSLPIWKWYCDYFPISLIKTVNLKPTFTLSKNKRVNEKNYKIRLWPTKYSINLKSNSTIDYRNQECTGPTYLFGYHPHGIGALGAFGAFATEGCNYSKIFPGIPISLMTLVTQFHIPLYRDYLLALGISSVSRKNALRTLSKNQSICIVVGGARESLLSSTNGTQLILNKRKGFIKLAIQTGNINLVPVFAFGEVDCYNVLSTKKDSVLGKMQLWFKENFGFTIPIFYARGLFNYDFGLLPFRAPINVVVGRPIYVEKKITNPPDDVVNHFHDLYIAELKRLYYENREKYGVPDAELKIVG
notes: Dga1, diacylglycerol acyltransferase of S. cerevisiae; DGA1 amplified from W303 genomic DNA; 418 residues by the printed ranges; also called pNubG-DGA1; pADSL-NubG-DGA1; source: yeast two-hybrid fusion (split ubiquitin prey), from plasmid pADSL-NubG-DGA1 in S. cerevisiae; not shown: NubG, N-terminal, kept

— article PMC10302205, “Saccharomyces cerevisiae Δ9-desaturase Ole1 forms a supercomplex with Slc1 and Dga1” (The Journal of Biological Chemistry, 2023)
